ChEMBL document CHEMBL1201862, “PubChem BioAssay data set” (2004)
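Briefly, cells in 96-well plates were exposed to five compound concentrations for 48 h, and endpoints were estimated by linear interpolation. GI50 marks 50% less growth.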 Activity calls are given as the source filed them. Cut-off read from the data, not from the text of the source: active = GI50 up to about 1.1 µM and inactive = higher.

Each compound was assayed on NCI-H322M (assay: NCI tumour cell line growth inhibition, 48 h).
For `Nc1nc(SCc2ccccc2Cl)cc(C(=O)O)n1`, the GI50 was inactive: 51.1 µM.
For `O=C(O)c1nnsc1-c1ccc(-c2snnc2C(=O)O)cc1`, the GI50 was inactive: 46.8 µM.
`CC(C)(C)OC(=O)C(C1NC(C(=O)O)C(C)(C)S1)N1C(=O)c2ccccc2C1=O` (stereo not drawn) was tested, and the GI50 was inactive: > 100 µM.
In the case of `Oc1ccccc1/C=N/Cc1ccco1`, the GI50 is reported as inactive: > 100 µM.
`COc1ccc(C(=O)C(C(=O)CCC(=O)Nc2cccc(C(F)(F)F)c2)c2ccccc2)cc1` (stereo not drawn) was tested, and the GI50 was inactive: > 100 µM.
For `CSc1[nH]nc(N)c1C(=O)Nc1ccc(Cl)cc1`, the GI50 was inactive: 55.2 µM.
In the case of `Cc1cc(C)c([S@@](=O)O[C@@H]2[C@H]3OC(C)(C)O[C@H]3O[C@@H]2[C@H]2COC(C)(C)O2)c(C)c1`, the GI50 is reported as inactive: 51.8 µM.
For `O=C1/C(=C/c2ccccc2Cl)COc2ccc(Br)cc21`, the GI50 was inactive: > 100 µM.
`CN(C)CCCCN1c2ccccc2Sc2ccc(N=[N+]=[N-])cc21` was tested, and the GI50 was inactive: 8.89 µM.
With `C=C1CCC2C(C)(CO)C(O)CCC2(C)C1C/C=C1/CCOC1=O` (stereo not drawn) the GI50 was inactive: > 100 µM.
`CCC(=O)ONC(=O)Cn1ccc([N+](=O)[O-])n1` was tested, and the GI50 was inactive: > 100 µM.
For `CCN(CC)CCC(=O)c1ccc(Oc2ccc(F)cc2)cc1`, the GI50 was inactive: > 100 µM.
In the case of `C[N+](C)(C)CC(=O)N/N=C/c1oc(-c2cccc([N+](=O)[O-])c2)c(-c2cccc([N+](=O)[O-])c2)c1[N+](=O)[O-]`, the GI50 is reported as inactive: > 100 µM.
In the case of `COc1cc(OC)c(C2(c3c(OC(C)C)c(=O)c3=O)SCCCS2)cc1OC`, the GI50 is reported as inactive: > 100 µM.
For `CCCCN(CCCC)C(=O)C(=O)C(C#N)c1ccc(C)cc1` (stereo not drawn), the GI50 was inactive: > 100 µM.
For `COc1ccc2cc(Oc3ccc(Cl)cc3)c(=O)oc2c1`, the GI50 was inactive: > 100 µM.
With `O=[N+]([O-])c1cn[n+]([O-])c2ccccc12` the GI50 was inactive: 14.1 µM.
For `COC(=O)C(=O)C(C(=O)C(=O)Nc1ccc(OC)cc1[N+](=O)[O-])c1nc2ccc([N+](=O)[O-])cc2nc1O` (stereo not drawn), the GI50 was inactive: > 100 µM.
In the case of `Nc1ccc2ncc(Nc3ccc(F)cc3)nc2c1`, the GI50 is reported as inactive: > 100 µM.
With `N=C(N)NS(=O)(=O)c1ccc(Nc2c3ccccc3nc3c(C(=O)Nc4ccc(S(N)(=O)=O)cc4)cccc23)cc1` the GI50 was inactive: > 100 µM.
In the case of `CC(C)OC1=C(CC2(C)OCCO2)C(=O)C12OCCO2`, the GI50 is reported as inactive: > 100 µM.
With `N#CC(C(=O)C(=O)Nc1ccccc1)c1ccccc1` (stereo not drawn) the GI50 was inactive: > 100 µM.
In the case of `COC(=O)/C(=N\NC(=S)NN)C(C(=O)OC)C(=O)C(=O)Nc1cccc(C(F)(F)F)c1` (stereo not drawn), the GI50 is reported as inactive: > 100 µM.
`N#CC(C#N)=Cc1ccc(C=C2SC3=C(SCCS3)S2)s1` was tested, and the GI50 was inactive: > 100 µM.
`COc1ccc2[nH]c3c(c2c1)COc1ccccc1C3=O` was tested, and the GI50 was inactive: > 100 µM.
`COP(=O)(OC)/C(=N\Nc1ccc([N+](=O)[O-])cc1)NCc1ccccc1` was tested, and the GI50 was inactive: 16.1 µM.
For `CN1C(=O)NC2(O)c3ccccc3C(=O)C12O` (stereo not drawn), the GI50 was inactive: > 100 µM.
For `COc1ccc(-c2ncn(C[Si](C)(C)C)c2-c2ccc(OC)cc2)cc1`, the GI50 was inactive: 5.46 µM.
In the case of `COC(=O)C1=C(OC(=O)/C(=C/c2ccccc2)c2ccc(Cl)cc2Cl)C(C(=O)OC)[C@@]2(O)[C@@H](C(=O)OC)[C@H](C)C[C@@H]1[C@@H]2C(=O)OC` (stereo partly drawn), the GI50 is reported as inactive: > 100 µM.
With `COc1ccc(/C=N\N2CC(=O)N3C4C=CC(CC4)N3C2=O)cc1` (stereo not drawn) the GI50 was inactive: > 100 µM.
`CCOC(=O)Cc1c(C(=O)OCC)[n+]([O-])c2cc(Cl)c(Cl)cc2[n+]1[O-]` was tested, and the GI50 was inactive: 5.02 µM.
With `O=C1/C(=C\c2cccc(Oc3ccccc3)c2)S(=O)(=O)C(c2ccccc2)N1c1ccccc1Cl` (stereo not drawn) the GI50 was inactive: 50.8 µM.
In the case of `CN(C)CCNC(=O)c1cccc2c(NC(CCC(N)=O)C(=O)O)c3ccccc3nc12` (stereo not drawn), the GI50 is reported as inactive: 12.6 µM.
For `COC(=O)C(/C(=N/NC(N)=O)C(=O)Nc1c(C)cccc1C(C)(C)C)c1nc2ccc(Cl)cc2nc1O` (stereo not drawn), the GI50 was inactive: > 100 µM.
`CCOC(=O)C(Cc1ccc2c(c1)CCC2)Cc1ccc2c(c1)CCC2` was tested, and the GI50 was inactive: > 100 µM.
In the case of `N#CCCN(C(=O)Nc1ccccc1)[C@H]1CCCC[C@@H]1N(C(=O)Nc1ccccc1)c1ccccc1`, the GI50 is reported as inactive: > 100 µM.
With `COc1ccccc1N1C(=O)CSC1c1cccc(Oc2ccccc2)c1` (stereo not drawn) the GI50 was inactive: 19.5 µM.
In the case of `N#Cc1c(Cl)c2ccccc2n2c1nc1ccccc12`, the GI50 is reported as inactive: > 100 µM.
For `O=C1NC(N/N=C/c2ccccc2)=N/C1=C\c1ccco1`, the GI50 was inactive: 46.1 µM.
With `N#CC(c1nc2ccccc2s1)c1nc(Cl)ncc1Br` (stereo not drawn) the GI50 was inactive: > 100 µM.
`O=C(Nc1ccc(/N=N/c2ccccc2)cc1)Sc1ccccc1C(=O)O` was tested, and the GI50 was inactive: > 100 µM.
With `O=C(CCc1nnc(S)[nH]1)Nc1ccccc1Cl` the GI50 was inactive: > 100 µM.
In the case of `CC(SC(=S)N1CCCCC1)C(=O)Nc1nnc(-c2ccc(Cl)cc2)o1` (stereo not drawn), the GI50 is reported as inactive: 33.4 µM.
In the case of `Cc1noc2cccc(O)c12`, the GI50 is reported as inactive: > 100 µM.
With `COc1ccccc1/C=C1\SC(=S)N(/C=C2\C(=O)Oc3ccccc3C2=O)C1=O` the GI50 was inactive: 37.2 µM.
`COCC[N+](CCNC(=O)c1cccc2c(N)c3cccc(C)c3nc12)(CCOC)Cc1ccc([N+](=O)[O-])cc1` was tested, and the GI50 was inactive: 20.1 µM.
`Cc1ccc(-n2c(=O)c3nn4c(=O)n(-c5ccc(C)cc5)c(=O)c4nn3c2=O)cc1` was tested, and the GI50 was inactive: > 100 µM.
In the case of `Cc1cc(N(CCC#N)CCC#N)ccc1/C=C1N=C(/C=C\c2ccccc2)OC\1=O`, the GI50 is reported as inactive: > 100 µM.
For `COCCN1C2=CCCCC2=Nc2c1nc(N)[nH]c2=O`, the GI50 was inactive: > 100 µM.
For `Brc1ccc2[nH]cc(-c3csc(-c4c[nH]c5ccccc45)n3)c2c1`, the GI50 was inactive: 3.07 µM.
In the case of `CCc1n[nH]c(=O)n1N1C(=O)C2CCCCC2C1=O` (stereo not drawn), the GI50 is reported as inactive: > 100 µM.
For `O=c1oc2ccccc2c(Nc2ccc3c(c2)S(=O)(=O)c2ccccc2O3)c1[N+](=O)[O-]`, the GI50 was inactive: 34.9 µM.
`COC(=O)C1CCc2nnc(-c3ccccc3)n21` (stereo not drawn) was tested, and the GI50 was inactive: > 100 µM.
In the case of `COc1c(C(C)(C)C)cc(CC2C(=O)C=CC2=O)cc1C(C)(C)C`, the GI50 is reported as inactive: 17.3 µM.
`COC(=O)C1CCN(C(=O)OC(C)(C)C)CC1` was tested, and the GI50 was inactive: > 100 µM.
In the case of `O=c1cc(-c2ccccc2)oc2cc(OCC(O)COc3ccc4c(=O)cc(-c5ccccc5)oc4c3)ccc12`, the GI50 is reported as inactive: > 100 µM.
In the case of `O=c1oc2ccccc2n1CCCn1c(=O)oc2ccccc21`, the GI50 is reported as inactive: > 100 µM.
For `CCc1n[nH]c(=O)n1-c1ccc2ccccc2c1`, the GI50 was inactive: > 100 µM.
For `Cc1cc(O)cc(O)c1C(=O)O[C@]1(C)C(=O)C=C2C=C(/C=C/C(=O)O)OC=C2C1=O`, the GI50 was inactive: 76.9 µM.
For `COc1cccc(C2c3cc4c(cc3OC(O)C2C)OCO4)c1OC` (stereo not drawn), the GI50 was inactive: 12.1 µM.
For `COC(=O)C1CCc2c(OC)ccc(OC)c2C1=O` (stereo not drawn), the GI50 was inactive: > 100 µM.
`COC(=O)C1Cc2c(OC)ccc(OC)c2C(O)C1C(=O)OC` (stereo not drawn) was tested, and the GI50 was inactive: > 100 µM.
With `O=[N+]([O-])/C(C(Cl)=C(Cl)Cl)=C(\N1CCCCC1)n1nnc2ccccc21` the GI50 was inactive: 17.8 µM.
For `O=C1OC(c2cccc(C(F)(F)F)c2)(c2cccc(C(F)(F)F)c2)c2ccc3ccccc3c21`, the GI50 was inactive: > 10 µM.
In the case of `CC1(Cl)CC2C(CC1Sc1nnnn1-c1ccccc1)C2(C)C` (stereo not drawn), the GI50 is reported as inactive: > 100 µM.
For `CC(C)(C)NNC(=O)/C(=C/c1ccc(Oc2ccc(Cl)c(Cl)c2)cc1)NC(=O)c1ccccc1`, the GI50 was inactive: > 100 µM.
`COC(=O)C1CCC(=S)N1C(=O)OCc1ccccc1` (stereo not drawn) was tested, and the GI50 was inactive: 7.89 µM.
With `CC(C)(C)c1ccc(O)c(C(O)c2ccccn2)c1` (stereo not drawn) the GI50 was inactive: > 100 µM.
With `O=C(COc1ccc(OCC(=O)NNC2=NC(c3cc(F)c(Cl)cc3Cl)CS2)c(Cl)c1)NNC1=NC(c2cc(F)c(Cl)cc2Cl)CS1` (stereo not drawn) the GI50 was inactive: > 100 µM.
`COC(=O)C1C2OC(C)(C)OC2CN1S(=O)(=O)c1ccc(C)cc1` (stereo not drawn) was tested, and the GI50 was inactive: > 100 µM.
With `Nc1nc(=O)[nH]c2c1cnn2COCCO` the GI50 was inactive: > 100 µM.
`O=C(Nc1ccccc1)c1cc(S(=O)(=O)n2ccnc2O)c(S)cc1Cl` was tested, and the GI50 was inactive: > 100 µM.
With `C[C@]12CCC(=O)C=C1CC[C@@H]1[C@@H]2CC[C@]2(C)C(=O)[C@H](n3ccnc3)C[C@@H]12` the GI50 was inactive: > 100 µM.
With `O=C1NC(=O)C(CC2CCCCCCCCCCC2=O)C(=O)N1` (stereo not drawn) the GI50 was inactive: > 100 µM.
`CC1(C)OC(=O)C(c2cccs2)C(=O)O1` was tested, and the GI50 was inactive: > 100 µM.
With `O=C(O)C1C2CC3CC2CC31` (stereo not drawn) the GI50 was inactive: > 100 µM.
`c1ccc2c(C3NCCc4nc[nH]c43)cccc2c1` (stereo not drawn) was tested, and the GI50 was inactive: > 100 µM.
For `O=c1[nH]nc(-c2ccccc2)n1/N=C/c1cccnc1`, the GI50 was inactive: > 100 µM.
In the case of `CC1=NN2C(=N)/C(=C/c3ccccc3)C(=O)N=C2S1`, the GI50 is reported as inactive: > 100 µM.
`O=C(c1cccc(F)c1F)N1CCc2c([nH]c3ccccc23)C1c1ccc2c(c1)OCO2` (stereo not drawn) was tested, and the GI50 was inactive: 10.1 µM.
With `CC(=O)On1c(-c2ccccc2-c2nc3ccccc3n2OC(C)=O)nc2ccccc21` the GI50 was inactive: 54 µM.
With `COC(=O)C(CC(=O)Nc1ccc(Cl)c(Cl)c1)C(=O)C(=O)Nc1ccc(Cl)c(Cl)c1` (stereo not drawn) the GI50 was inactive: > 100 µM.
With `C/C(=C\CNc1ncnc2c1ncn2CCC(=O)OC(C)(C)C)CO` the GI50 was inactive: > 100 µM.
With `Cc1c(O)nc(/C=C/C(=O)O)nc1C(=O)O` the GI50 was inactive: > 100 µM.
In the case of `Cn1c(=O)c(C#N)c(O)c2cc3ccccc3nc21`, the GI50 is reported as inactive: > 100 µM.
With `COc1ccc2c(c1)C(=O)/C(=C/c1ccccc1)C2` the GI50 was inactive: 84.7 µM.
`O=C1OC(c2ccccc2)(c2ccccc2)CC1CN1CCOCC1` (stereo not drawn) was tested, and the GI50 was inactive: 44.1 µM.
With `COc1ccc(C(c2ccc(C(C)C)cc(OC)c2=O)c2ccc(C(C)C)cc(OC)c2=O)cc1` the GI50 was inactive: 13.8 µM.
`CC(=O)OC12c3ccccc3-c3ccccc3C1C(C(=O)O)C2C(=O)O` (stereo not drawn) was tested, and the GI50 was inactive: > 10 µM.
With `COC(=O)C1=C(OC)c2cc3c(cc2C(c2cc(OC)c(OC)c(OC)c2)C1C(=O)OC)OCO3` (stereo not drawn) the GI50 was inactive: > 100 µM.
For `CCOC(=O)C1=C(NC)OCC1=O`, the GI50 was inactive: > 100 µM.
`O=c1c(C(c2cccc(C(c3c(O)oc4ccccc4c3=O)c3c(O)oc4ccccc4c3=O)c2)c2c(O)oc3ccccc3c2=O)c(O)oc2ccccc12` was tested, and the GI50 was inactive: 44.7 µM.
For `c1ccc(COc2ccc3[nH]c4c5c6ccccc6nc-5c[nH]c4c3c2)cc1`, the GI50 was inactive: 19.4 µM.
